± gives the standard deviation of the averaged measurements. Some of the results follow.
system: PfAP2-EXP AP2 domain (GST-tagged); assay: gcPBM binding intensity (ln(normalized median fluorescence intensity)); higher = stronger DNA binding
Outline: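 Alexa488 anti-GST antibody, scanned at 488 nm, detected GST-tagged P. falciparum DNA-binding domains that had been expressed in E. coli and incubated for 1 h on an Agilent 4 × 180k array. The array carried primer-extended double-stranded 36-bp intergenic genomic probes and negative controls. Binding intensity is the highest Masliner-normalised natural-log median intensity across replicate spots of either orientation of each probe.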

“AAAAGAAAAAGAAAAACACACATAAATATAAATATA [CACACA_site1879]” and “AAAATTTTCTTTTTATGTACACATAATTTTACCGGA [XGTACX_site5276]” are within error of each other in “gcPBM binding intensity (ln)” value: 8.57 ± 0.55 for the first, 8.7 ± 0.43 for the second.

“AAAACAATAATATACTGTACATATATATAATAACAT [XGTACX_site6188]” and “AATTTTTCATCAAGTTGTACAATTATTTGTTTGTTT [XGTACX_site3113]” are within error of each other in “gcPBM binding intensity (ln)” value: 8.82 ± 0.49 for the first, 8.74 ± 0.57 for the second.

“CATACACATACACATACACACGCATAGAAACATACG [CACACA_site8666]” and “AAATTCAGGTTATATTTTAATTTTTTTTTGTTTTTT [CACACA_negctrl_site924]” are within error of each other in “gcPBM binding intensity (ln)” value: 8.79 ± 0.33 for the first, 8.25 ± 0.35 for the second.

“CAATATTTTTTATAGGGTACAAAAGATAAAAAAAAA [XGTACX_site6298]” and “TAAATATTATAAATGATACACACTTAAAATACTCAC [CACACA_site2710]” are within error of each other in “gcPBM binding intensity (ln)” value: 8.93 ± 0.43 for the first, 8.4 ± 0.29 for the second.

Compared with “AACATAAGTAAGAATACATGCGGAAATTATATAGAA [TGCATGCA_site112]”, “TATAAATTTAAAATGACACACACTAAAGTTATTTAA [CACACA_site6700]” is lower in “gcPBM binding intensity (ln)” value: 9.2 ± 0.52 for the first, 8.23 ± 0.4 for the second.

“TCCCTTAAAATGATATGTACATAAAAATAAAAAAAA [XGTACX_site836]” and “TATATATTTGTTCACACACACACAAAAAAAAAAAAA [CACACA_site2475]” are within error of each other in “gcPBM binding intensity (ln)” value: 8.65 ± 0.13 for the first, 8.46 ± 0.7 for the second.

“TAAGGACTAATATTTGAACACACATATAATATATAC [CACACA_site9325]” and GTCATCAAGTATTAAGTGCATTAAAAATAAAATATA are within error of each other in “gcPBM binding intensity (ln)” value: 8.59 ± 0.45 for the first, 8.66 ± 0.28 for the second.

Compared with “CATATATATATATATATATATATATTTATTTATTTA [TGCATGCA_negctrl_site165]”, “TTAAAAGAAAATAACACACACAAAAAAAAAAAAAAA [CACACA_site2117]” is lower in “gcPBM binding intensity (ln)” value: 8.7 ± 0.014 for the first, 8.01 ± 0.42 for the second.

Compared with “AAAATACACAACATATATATATATATATATATATAT [XGTACX_negctrl_site21]”, “TTTTGTTTTAAAAGTACACACTTTTAATTAGATTTC [CACACA_site4788]” is lower in “gcPBM binding intensity (ln)” value: 10.1 ± 0.36 for the first, 8.35 ± 0.26 for the second.

First: TGATCAATGGATTTAACACACAAAAAAAAAAAAAAA [CACACA_site3845]
Second: TTTTTTTTTTTTTTTGCATGCAGGTTTTTACCCCTT [TGCATGCA_site381]
The “gcPBM binding intensity (ln)” value of the first is lower: 8.09 ± 0.47 for the first, 9.53 ± 0.14 for the second.

“TTATTTTCAAAATGTTGTACACACAAAAAAAAAAAA [XGTACX_site3151]” and “ATTTATTTTTTACATTGTACATATTTATTCCTTTTA [XGTACX_site8028]” are within error of each other in “gcPBM binding intensity (ln)” value: 8.69 ± 0.52 for the first, 8.8 ± 0.45 for the second.

Compared with “TATAACATTTTTTTCAAAATAGCTTTAGAAATAAAG [CACACA_negctrl_site718]”, “TATGTATATATATAAAGTACGCAAATTTATAATAAG [XGTACX_site8744]” is higher in “gcPBM binding intensity (ln)” value: 7.99 ± 0.38 for the first, 8.78 ± 0.33 for the second.

“ATATGTGGAAATAGAGCACACATATATATAATATAT [CACACA_site8194]” and “TTTTTTTTCTTCAAGCGTACTTATTTGTAGAAAAAA [XGTACX_site1728]” are within error of each other in “gcPBM binding intensity (ln)” value: 8.47 ± 0.79 for the first, 8.64 ± 0.23 for the second.

“ACTAACATATATTCAACACACATATACCTTCAACCC [CACACA_site3011]” and CCCATTTAATATTGAGTGCATTTAAATAAATGTATT are within error of each other in “gcPBM binding intensity (ln)” value: 8.77 ± 0.62 for the first, 8.69 ± 0.11 for the second.

First: TTTTACAAAGTATGATGTACAAGTATATATAAATAT [XGTACX_site2072]
Second: TATATATATATATACACACACACATATATATATATA [CACACA_site774]
The “gcPBM binding intensity (ln)” value of the first is lower: 8.41 ± 0.36 for the first, 10.1 ± 0.24 for the second.

“TGAAAAGGAAAATTTTGTACATATACATCAAGGATA [XGTACX_site656]” and “TACATGAATAAACTTACACACACCCATGCATACATA [CACACA_site97]” are within error of each other in “gcPBM binding intensity (ln)” value: 8.81 ± 0.8 for the first, 8.71 ± 0.44 for the second.

“ACTTTTTATTTTTTACTATATATATATATATATATG [TGCATGCA_negctrl_site463]” and “AAAAAAAAGAATTTACGTACTTATTATTTATATTTT [XGTACX_site5701]” are within error of each other in “gcPBM binding intensity (ln)” value: 8.96 ± 0.4 for the first, 8.26 ± 0.34 for the second.

“TATATATATTCTTTAAAACACACGTAAAGAAGAATT [CACACA_site2718]” and “AAAAAAAAAAGAAACACACACATATATATATATAAT [CACACA_site5052]” are within error of each other in “gcPBM binding intensity (ln)” value: 8.81 ± 0.55 for the first, 8.61 ± 0.52 for the second.

“TGCTATATTATTATCGCACACCGTTGATTCTAAATA [CACACA_site1207]” and “CATTTATTTATATACACACACACAAAAAAAAAAAAA [CACACA_site7279]” are within error of each other in “gcPBM binding intensity (ln)” value: 8.39 ± 0.29 for the first, 8.55 ± 0.54 for the second.

Compared with “ATAAGTGTATAAAAATGTACGTGTATAAAAATATGT [XGTACX_site8235]”, “TTTTTAATTTAAAAAAATAATATTTTATATTCCGAA [CACACA_negctrl_site108]” is lower in “gcPBM binding intensity (ln)” value: 9.04 ± 0.52 for the first, 8 ± 0.21 for the second.

Going from “AAATATTTATATATATGTACACATATAATATTTTTA [XGTACX_site2338]” to “GTAAGCATCAAAAAAGGTACAGAAATTATAAATAAA [XGTACX_site6708]”, the “gcPBM binding intensity (ln)” value rises from 8.27 ± 0.21 to 8.78 ± 0.26.

“TATTTTTTATTTTTTTGTACATATTTGATAATTAAT [XGTACX_site316]” and “ATTTCTAATATTTTTGCACACTAAACAATAAATTTC [CACACA_site3943]” are within error of each other in “gcPBM binding intensity (ln)” value: 8.77 ± 0.38 for the first, 8.82 ± 0.16 for the second.

GAAAATTTATTTTTGGTGCATGTATTTATTTATTTT and “ATATATGTTATTATTTGTACACACACATATATATCC [XGTACX_site7657]” are within error of each other in “gcPBM binding intensity (ln)” value: 9.06 ± 0.085 for the first, 8.95 ± 0.48 for the second.

First: GTATATAATATTAGTGCACACACAAAAATGTACTAA [CACACA_site8112]
Second: GAAATAATAAATTAAAAATCGTTTATAACATTTAAC [CACACA_negctrl_site425]
The “gcPBM binding intensity (ln)” value of the first is higher: 8.88 ± 0.13 for the first, 8.13 ± 0.38 for the second.

First: ATTTTCTTTCTATGCACACGCACGTATTTGCACCCA [CACACA_site3350]
Second: AGTTTAATATAAAATACACACTACTCTTATAAATAT [CACACA_site6803]
The “gcPBM binding intensity (ln)” value of the first is higher: 9.35 ± 0.11 for the first, 8.27 ± 0.29 for the second.

“CTTTTTTTTTGATGTTGTACATATATATTATATAAT [XGTACX_site1321]” and “AGTAATATAATATAAGCACACGTGTATTTATTTAGT [CACACA_site4246]” are within error of each other in “gcPBM binding intensity (ln)” value: 8.77 ± 0.42 for the first, 8.69 ± 0.35 for the second.

“TCCTTATATTGGCACACACACACAATAAAATGAAAA [CACACA_site4715]” and “GGTTGCTTCAGTGAATGTACATAGTGGTAAACAAGC [XGTACX_site166]” are within error of each other in “gcPBM binding intensity (ln)” value: 8.69 ± 0.4 for the first, 9.26 ± 0.38 for the second.

“GTATAAAAGTAATGTAGTACTTATATATTTTTATTT [XGTACX_site8975]” and “TGCACATTTATGTAACGTACAAAATATAATATGTTA [XGTACX_site8255]” are within error of each other in “gcPBM binding intensity (ln)” value: 8.18 ± 0.18 for the first, 8.54 ± 0.34 for the second.

“TACAAAATAAAAATAATTCTTTCAAAAAATAATAAA [XGTACX_negctrl_site368]” was tested, and the “gcPBM binding intensity (ln)” value was 8.04 ± 0.38.
